Measurements as given in the supplement of paper PMC11348887.
Counter-ions that a name gives are not always drawn. This is one part of the list. Cut-off read from the data, not from the text of the source: active = -2 or less and inactive = the rest. Single values are uncertain, as repeats are few or missing.

What follows are molecules tested on hPSC-derived cortical neurons (WA09) (assay: nuclei number (viability) z-score; higher = more surviving cells). Conditions: 5 µM; treatment: days 7-14 after plating, readout day 21.
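Note: nuclei counted from DAPI counterstain by automated high-content image analysis, four fields per well at ×20 in 384-well plates, with sequential b-score then z-score normalization.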

Structure (SMILES)	nuclei number (z-score)
CC(C)(Oc1ccc(CCNC(=O)c2ccc(Cl)cc2)cc1)C(=O)O [Bezafibrate]	inactive: 4.98
CCc1ccc(CCOc2ccc(CC3SC(=O)NC3=O)cc2)nc1 (configuration not stated) [Pioglitazone]	inactive: 0.0566
CCc1ccc(CCOc2ccc(CC3SC(=O)NC3=O)cc2)nc1 (configuration not stated) [Pioglitazone HCl]	inactive: 4.18
Cc1ccc(N(CC2=NCCN2)c2cccc(O)c2)cc1 [Phentolamine Mesylate]	inactive: 0.0606
CC(C)Nc1cc(-c2c[nH]c(C(=O)N[C@H](CO)c3cccc(Cl)c3)c2)c(Cl)cn1	inactive: 0.0805
CNC[C@@H](O)c1ccc(O)c(O)c1 [L-Adrenaline]	inactive: 3.23
COc1cc(F)c(C(C)C)cc1-c1ccc(C(F)(F)F)cc1CN1C(=O)O[C@H](c2cc(C(F)(F)F)cc(C(F)(F)F)c2)[C@@H]1C [Anacetrapib (MK-0859)]	inactive: -0.845
CO[C@H]1/C=C/O[C@@]2(C)Oc3c(C)c(O)c4c(O)c(c(/C=N/N5CCN(C)CC5)c(O)c4c3C2=O)NC(=O)/C(C)=C\C=C\[C@H](C)[C@H](O)[C@@H](C)[C@@H](O)[C@@H](C)[C@H](OC(C)=O)[C@@H]1C [Rifampin]	inactive: -1.73
Cc1c(Cl)cccc1Nc1ccccc1C(=O)O [Tolfenamic Acid]	inactive: -0.103
CCCSc1ccc2[nH]c(NC(=O)OC)nc2c1 [Albendazole]	inactive: 0.312
COC(=O)[C@H](c1ccccc1Cl)N1CCc2sccc2C1 [Clopidogrel]	inactive: -0.65
COCCCC/C(=N\OCCN)c1ccc(C(F)(F)F)cc1 [Fluvoxamine maleate]	inactive: -0.167
CN(C)[C@@H]1C(O)=C(C(N)=O)C(=O)[C@@]2(O)C(O)=C3C(=O)c4c(O)cccc4[C@@](C)(O)[C@H]3C[C@@H]12 [Tetracycline HCl]	inactive: -1.08
O=C(Nc1cc(C(F)(F)F)cc(C(F)(F)F)c1)c1cc(Cl)ccc1O	inactive: 0.0251
NC(=O)N1CCC(CC(=O)N2CCC([C@H]3c4ncc(Br)cc4CCc4cc(Cl)cc(Br)c43)CC2)CC1 [Lonafarnib]	inactive: -0.716
C[C@H](N[C@@H](CCc1ccccc1)C(=O)O)C(=O)N1CCC[C@H]1C(=O)O [Enalaprilat Dihydrate]	inactive: -0.603
CS(=O)(=O)c1ccc(C(=O)Nc2ccc(Cl)c(-c3ccccn3)c2)c(Cl)c1 [Vismodegib (GDC-0449)]	inactive: 0.187
Cc1ccc2c(c1)C(=O)C1(O)CCN(c3ccccc3)C1=N2 (single isomer, unassigned; (-)) [(-)-Blebbistatin]	inactive: 6.44
CC(C)C[C@H](NC(=O)[C@H](Cc1ccccc1)NC(=O)c1cnccn1)B(O)O [Bortezomib (PS-341)]	active: -2.65
COc1ccc(CC(C)NCC(O)c2ccc(O)c(NC=O)c2)cc1 (configuration not stated) [Formoterol Hemifumarate]	inactive: -1.49
Nc1ccc2ncnc(NCCc3ccc(Oc4ccccc4)cc3)c2c1	inactive: 0.102

Structure (SMILES)	nuclei number (z-score)
Oc1c(Br)cc(Br)c2cccnc12 [Broxyquinoline]	inactive: 1.25
COc1ccc(-c2coc3cc(O)ccc3c2=O)cc1 [Formononetin]	inactive: 0.483
CN1CCN(S(=O)(=O)c2ccc(-c3cnc(N)c(C(=O)Nc4cccnc4)n3)cc2)CC1	inactive: -0.213
CNc1nc(-c2ccc3c(N)n[nH]c3c2)cc(N2C[C@@H](C(=O)NC3CCCCC3)CC[C@H]2C)n1	inactive: -0.335
Nc1nc(F)nc2c1ncn2[C@@H]1O[C@H](COP(=O)(O)O)[C@@H](O)[C@@H]1O [Fludarabine Phosphate]	active: -4.19
O=C(NOCC1CC1)c1ccc(F)c(F)c1Nc1ccc(I)cc1Cl	inactive: 1.31
CCOC(=O)N1CCC(=C2c3ccc(Cl)cc3CCc3cccnc32)CC1 [Loratadine]	inactive: -0.639
CC1(C)CCC(c2ccc(Cl)cc2)=C(CN2CCN(c3ccc(C(=O)NS(=O)(=O)c4ccc(N[C@H](CCN5CCOCC5)CSc5ccccc5)c(S(=O)(=O)C(F)(F)F)c4)cc3)CC2)C1 [ABT-263 (Navitoclax)]	active: -4.47
O=C(COc1ccc(C(=O)c2ccccc2)cc1)NC1CCN(Cc2ccccc2)CC1 [AdipoRon]	inactive: 1.04
O=C1NC(=O)C(c2ccccc2)(c2ccccc2)N1 [Phenytoin]	inactive: 0.242
CC(C)(O)c1ccccc1CC[C@@H](SCC1(CC(=O)O)CC1)c1cccc(/C=C/c2ccc3ccc(Cl)cc3n2)c1 [Montelukast Sodium]	inactive: 0.198
O=C1NC(=O)C(=Cc2ccc(-c3ccc(F)cc3)o2)S1 (stereo in doubt)	inactive: 0.32
CCN[C@@H]1C[C@H](N)[C@@H](O[C@H]2OC(CN)=CC[C@H]2N)[C@H](O)[C@H]1O[C@H]1OC[C@](C)(O)[C@H](NC)[C@H]1O [Netilmicin Sulfate]	inactive: 4.29
OC[C@@H](O)[C@@H](O)[C@@H](O)CO [Ribitol]	inactive: -0.39
O=C(Nc1ccccc1)Nc1ccc(-c2ccc(C(=O)[C@@H]3CCC[C@H]3C(=O)O)cc2)cc1	inactive: 1.97
CN(C)C/C=C/C(=O)Nc1cc2c(Nc3ccc(F)c(Cl)c3)ncnc2cc1O[C@H]1CCOC1 [Afatinib (BIBW2992)]	inactive: -0.48
CN(C)C/C=C/C(=O)Nc1cc2c(Nc3ccc(F)c(Cl)c3)ncnc2cc1O[C@H]1CCOC1 [Afatinib (BIBW2992) Dimaleate]	active: -5.62
NC(=O)[C@@H]1CCCN1C(=O)[C@H](Cc1c[nH]cn1)NC(=O)[C@@H]1CCC(=O)N1 [Protirelin]	inactive: 1.74
O=C(NOCC(O)CO)c1cc(Br)c(F)c(F)c1Nc1ccc(I)cc1F (configuration not stated)	inactive: 0.0423
CN(C)CC(c1ccc(O)cc1)C1(O)CCCCC1 (configuration not stated) [Desvenlafaxine Succinate]	inactive: 0.73
CN(C)CC(c1ccc(O)cc1)C1(O)CCCCC1 (configuration not stated) [Desvenlafaxine]	inactive: -0.224
